Results reported in PubChem BioAssay AID2147 (National Center for Advancing Translational Sciences (NCATS), 2009).
Several values for one entry are separate records, joined by “and”; a condition that tells them apart may be missing. Equal entries are not always repeated. In all, about 230,000 compounds went through this assay and about 3,600 (1.6%) were called active. The inconclusive results got no clear call from the source; some entries with a clear call stand among them for comparison. The call rests on the fitted dose curve; in most records, active means well fitted inhibition curve with a large enough effect (not every such curve was filed as active); inconclusive means small, poorly fitted or top-dose-only effect, or another doubt; inactive means no such curve, though single readings can be large or run the other way. Potencies beside an inconclusive call are fits to weak or partial responses and may not hold up.

Target: Lysine-specific demethylase 4E (Homo sapiens) (UniProt B2RXH2)
Assay: qHTS Assay for Inhibitors of Human Jumonji Domain Containing 2E (JMJD2E)
Conditions: JMJD2E catalytic domain, FDH-coupled NADH fluorescence (FDH is formaldehyde dehydrogenase); series mostly up to 57.1 µM
Further: nearly all actives have a fitted effect of over 50% in size.
Potency means the concentration at half of the fitted maximal effect; tags describe the fitted curve by direction and shape.

UniProt B2RXH2, sequence (B2RXH2 whole entry, looked up, the tested form may be a part): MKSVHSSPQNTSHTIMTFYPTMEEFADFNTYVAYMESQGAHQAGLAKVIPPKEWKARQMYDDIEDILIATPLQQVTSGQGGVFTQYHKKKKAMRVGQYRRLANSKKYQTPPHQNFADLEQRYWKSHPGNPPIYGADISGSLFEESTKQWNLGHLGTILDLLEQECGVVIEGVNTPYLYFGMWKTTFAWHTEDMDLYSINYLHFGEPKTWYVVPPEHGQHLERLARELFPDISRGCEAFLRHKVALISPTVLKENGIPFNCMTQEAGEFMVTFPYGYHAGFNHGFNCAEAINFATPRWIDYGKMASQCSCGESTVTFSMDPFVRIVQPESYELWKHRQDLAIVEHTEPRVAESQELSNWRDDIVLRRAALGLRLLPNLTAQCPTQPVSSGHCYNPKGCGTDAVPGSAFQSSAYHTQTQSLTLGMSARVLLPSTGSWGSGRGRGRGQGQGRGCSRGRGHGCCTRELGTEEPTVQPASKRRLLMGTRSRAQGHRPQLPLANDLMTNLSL

Row | SMILES | Potency
1 | O=C(COc1ccccc1Cl)N1CCN(c2ccc([N+](=O)[O-])c(N3CCOCC3)c2)CC1 | inactive
2 | N#Cc1cc(C(=O)c2cc(F)ccc2O)cn(-c2nccs2)c1=O | inactive
3 | Cc1ccc(C(=O)O/N=C/c2c(N3CCOCC3)n(C)c3ccccc23)cc1 | inconclusive: 39.8 µM [inhibitor, single point]
4 | Cc1c(O)ccc2c(CN(C)Cc3ccccc3)cc(=O)oc12 | inconclusive: 31.6 µM [inhibitor, partial curve]
5 | Cc1cccc(NCc2ccc(O)c3ncccc23)c1C | inactive
6 | C=CCC1Cc2c(Br)cccc2C(CC=C)N1 (stereo not drawn) | inconclusive: 15.8 µM [inhibitor, partial curve, poor fit]
7 | COc1ccc(C2CC(=O)c3cnc(N4CCc5ccccc54)nc3C2)c(OC)c1 (stereo not drawn) | inconclusive: 35.5 µM [inhibitor, partial curve]
8 | CCN1CCn2c3c(c4cc(Cl)ccc42)CCCC31 (stereo not drawn) | inconclusive: 31.6 µM [inhibitor, partial curve]
9 | COc1ccc(-c2cc(C(F)(F)F)nc(NCc3cccs3)n2)cc1 | inconclusive: 35.5 µM [inhibitor, single point]
10 | Cc1ccc2[nH]c(=O)c(-c3noc(C(C)C)n3)cc2c1 | inconclusive: 25.1 µM [inhibitor, partial curve]
11 | COC(=O)CSc1nc(-c2ccccc2)nc2ccccc12 | inconclusive: 35.5 µM [inhibitor, single point]
12 | CCN(CC)C(=O)COC(=O)c1cc(-c2ccc(OC)cc2)nc2ccccc12 | inconclusive: 35.5 µM [inhibitor, partial curve]
13 | CNC(=O)CSc1nnc(SCCC(=O)O)s1 | inconclusive: 28.2 µM [inhibitor, single point]
14 | COc1cc(C(=O)OCC(=O)N2CCCCC2C)cc(NC(=O)c2cccs2)c1OC (stereo not drawn) | inconclusive: 39.8 µM [inhibitor, single point]
15 | C=CCN1C(=O)C(O)(CC(=O)c2ccc(N)cc2)c2ccccc21 (stereo not drawn) | inactive
16 | O=C(COC(=O)c1ccccc1Nc1ccccc1)NCc1ccco1 | inconclusive: 31.6 µM [inhibitor, partial curve]
17 | Nc1cc(=O)[nH]c(SCC(=O)N2N=C(c3ccc(Cl)cc3)CC2c2ccco2)n1 (stereo not drawn) | inactive
18 | O=C1NC(c2ccccc2)(C(F)(F)F)C(=O)N1Cc1cccnc1 (stereo not drawn) | inactive
19 | CCCC(=O)Nc1ccc(NC(=S)NC(=O)c2cccs2)cc1 | inactive
20 | C=CCN(c1ccc(C(=O)NC(C)C)cc1)S(C)(=O)=O | inactive
21 | COc1cc(OC)c(C(=O)CCCN2CCCC2)c(OC)c1 | inactive
22 | CC(=O)NCCc1c[nH]c2ccc(O)cc12 | inconclusive: 17.8 µM [inhibitor, partial curve] and inconclusive: 39.8 µM [inhibitor, single point]
23 | CCn1c2ccccc2c2cc(NC(=O)c3coc(=O)c(Br)c3)ccc21 | inconclusive: 4.47 µM [inhibitor, partial curve]
24 | C=CCn1c(-c2ccc(OC)cc2)csc1=Nc1c(C)n(C)n(-c2ccccc2)c1=O | inactive

Row | SMILES | Potency
25 | CCCCc1ccc(NC(=O)CN2NS(=O)(=O)c3ccccc3C2=O)cc1 | inactive
26 | O=C(CN1CCOc2ccccc21)NCc1ccc(F)cc1 | inactive
27 | Cc1cc(N2CCC(C(=O)NC3CCCCC3)CC2)nc(-c2ccccc2)n1 | inactive
28 | CCOc1ccc(NC(=O)Nc2ccc3c(c2)nnn3C)cc1 | inconclusive: 39.8 µM [inhibitor, single point]
29 | CCCOc1ccc(N2C(=O)CC(NNC(=O)c3ccc(COc4ccccc4)o3)C2=O)cc1 (stereo not drawn) | inactive
30 | O=C1NC(=Nc2ccccc2)/C(=C/c2ccco2)S1 | inconclusive: 39.8 µM [inhibitor, single point]
31 | Cc1ccccc1OCc1nc(-c2cccnc2)no1 | inconclusive: 28.2 µM [inhibitor, single point]
32 | O=C1c2cc(S(=O)(=O)NCCO)ccc2-c2ccc(S(=O)(=O)NCCO)cc21 | inactive
33 | Cn1ccc(=Nc2ccc(NC(=O)c3ccc(N=c4ccn(C)c5ccc([N+](=O)[O-])cc45)cc3)cc2)cc1 | inconclusive: 39.8 µM [inhibitor, single point]
34 | Cc1ccc(-n2c(SCC(=O)Nc3ccc4c5c(cccc35)CC4)nc(O)cc2=O)cc1 | inconclusive: 31.6 µM [inhibitor, single point]
35 | O=S(=O)(c1cccc2c(I)cccc12)N1CCCNCC1 | inactive
36 | O=C(c1ccccc1)N1CCC(c2nc3c(nnn3Cc3ccccc3Cl)c(=O)[nH]2)CC1 | inactive
37 | CS(=O)(=O)N1CCC(Oc2ccccc2C(=O)NC(C2CC2)C2CC2)CC1 | inactive
38 | Cc1cc(/C=C2\SC(=Nc3ccccc3)NC2=O)c(C)n1-c1ccc(S(N)(=O)=O)cc1 | inconclusive: 39.8 µM [inhibitor, single point]
39 | O=C(NC(Cc1ccccc1)C(=O)Oc1ccc2c(C(F)(F)F)cc(=O)oc2c1)OCc1ccccc1 (stereo not drawn) | inconclusive: 31.6 µM [inhibitor, partial curve]
40 | CC(=C\c1ccco1)/C=C(\C#N)C(=O)NCCc1c[nH]c2ccccc12 | inactive
41 | O=C(COC(=O)CCCN1C(=O)c2ccccc2C1=O)Nc1ncc(Cl)cc1Cl | inactive
42 | Cc1nc2ccc(NC(=O)N3CCOCC3)cc2nc1C | inconclusive: 28.2 µM [inhibitor, partial curve]
43 | C/C(N)=C(/C#N)C(=O)COC(=O)c1cccc2ccccc12 | inactive
44 | N#C/C(=N\O)c1nc(-c2ccccc2)cs1 | inactive
45 | O=C(O)CN=C(NS(=O)(=O)c1ccccc1)c1ccccc1 | inconclusive: 39.8 µM [inhibitor, single point]
46 | Cc1cccc2sc(N(CCCN(C)C)C(=O)c3sc4ccccc4c3Cl)nc12 | inactive
47 | c1ccc(N2CC3CCc4ccccc4C3=N2)cc1 (stereo not drawn) | inconclusive: 28.2 µM [inhibitor, partial curve]
48 | CC1(C)Cc2c(C#N)c(N3CCN(C(=O)c4ccco4)CC3)nc(Cc3ccccc3)c2CO1 | inconclusive: 10 µM [inhibitor, partial curve]
